These results are taken from paper PMC9911399, “Two distinct binding modes provide the RNA-binding protein RbFox with extraordinary sequence specificity”.

The chains are these.
T1: RBFOX1 RRM RbFoxmut (Fox-RRM*) (Homo sapiens, UniProt Q9NWB1 109-208, R118D;E147R;N151S;E152T)
T1 sequence: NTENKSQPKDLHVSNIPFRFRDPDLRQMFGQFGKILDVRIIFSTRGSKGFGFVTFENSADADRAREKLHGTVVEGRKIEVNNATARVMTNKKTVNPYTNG

B1: UUAUAAA (DNA:RNA)
RNA: GGGAGACCGGAAUUCAGAUUGUCCUUAUAAAUUAAAUCCCGUCGUAGCCACCA
DNA 1: CAATCTGAATTCCGGTCTCCC
DNA 2: TGGTGGCTACGACGGGATT
B2: GCAUAGG (DNA:RNA)
RNA: B1 RNA with U25G, U26C, A30G, A31G
DNA 1: CAATCTGAATTCCGGTCTCCC
DNA 2: TGGTGGCTACGACGGGATT
B3: UGAUCAA (DNA:RNA)
RNA: B1 RNA with U26G, A29C
DNA 1: CAATCTGAATTCCGGTCTCCC
DNA 2: TGGTGGCTACGACGGGATT
B4: CAGACAC (DNA:RNA)
RNA: B1 RNA with U25C, U26A, A27G, U28A, A29C, A31C
DNA 1: CAATCTGAATTCCGGTCTCCC
DNA 2: TGGTGGCTACGACGGGATT
B5: UCUUGAA (DNA:RNA)
RNA: B1 RNA with U26C, A27U, A29G
DNA 1: CAATCTGAATTCCGGTCTCCC
DNA 2: TGGTGGCTACGACGGGATT
B6: UCUGCUG (DNA:RNA)
RNA: B1 RNA with U26C, A27U, U28G, A29C, A30U, A31G
DNA 1: CAATCTGAATTCCGGTCTCCC
DNA 2: TGGTGGCTACGACGGGATT
B7: GCAUUCU (DNA:RNA)
RNA: B1 RNA with U25G, U26C, A29U, A30C, A31U
DNA 1: CAATCTGAATTCCGGTCTCCC
DNA 2: TGGTGGCTACGACGGGATT
B8: UCAUACU (DNA:RNA)
RNA: B1 RNA with U26C, A30C, A31U
DNA 1: CAATCTGAATTCCGGTCTCCC
DNA 2: TGGTGGCTACGACGGGATT
B9: CGGGUGA (DNA:RNA)
RNA: B1 RNA with U25C, U26G, A27G, U28G, A29U, A30G
DNA 1: CAATCTGAATTCCGGTCTCCC
DNA 2: TGGTGGCTACGACGGGATT
B10: UAGUCUG (DNA:RNA)
RNA: B1 RNA with U26A, A27G, A29C, A30U, A31G
DNA 1: CAATCTGAATTCCGGTCTCCC
DNA 2: TGGTGGCTACGACGGGATT
B11: GCUGGAU (DNA:RNA)
RNA: B1 RNA with U25G, U26C, A27U, U28G, A29G, A31U
DNA 1: CAATCTGAATTCCGGTCTCCC
DNA 2: TGGTGGCTACGACGGGATT
B12: CGGGGGC (DNA:RNA)
RNA: GGGAGACCGGAAUUCAGAUUGUCCCGGGGGCUUAAAUCCCGUCGUAGCCACCA
DNA 1: CAATCTGAATTCCGGTCTCCC
DNA 2: TGGTGGCTACGACGGGATT
B13: UAUCUCU (DNA:RNA)
RNA: B1 RNA with U26A, A27U, U28C, A29U, A30C, A31U
DNA 1: CAATCTGAATTCCGGTCTCCC
DNA 2: TGGTGGCTACGACGGGATT
B14: ACUCUAU (DNA:RNA)
RNA: B1 RNA with U25A, U26C, A27U, U28C, A29U, A31U
DNA 1: CAATCTGAATTCCGGTCTCCC
DNA 2: TGGTGGCTACGACGGGATT
B15: GAGAUAU (DNA:RNA)
RNA: B12 RNA with C25G, G26A, G28A, G29U, G30A, C31U
DNA 1: CAATCTGAATTCCGGTCTCCC
DNA 2: TGGTGGCTACGACGGGATT
B16: GGGAAAC (DNA:RNA)
RNA: B12 RNA with C25G, G28A, G29A, G30A
DNA 1: CAATCTGAATTCCGGTCTCCC
DNA 2: TGGTGGCTACGACGGGATT
B17: AUAAUAU (DNA:RNA)
RNA: B1 RNA with U25A, U28A, A29U, A31U
DNA 1: CAATCTGAATTCCGGTCTCCC
DNA 2: TGGTGGCTACGACGGGATT
B18: CUUUUUG (DNA:RNA)
RNA: B1 RNA with U25C, A27U, A29U, A30U, A31G
DNA 1: CAATCTGAATTCCGGTCTCCC
DNA 2: TGGTGGCTACGACGGGATT
B19: GAGCUAG (DNA:RNA)
RNA: B12 RNA with C25G, G26A, G28C, G29U, G30A, C31G
DNA 1: CAATCTGAATTCCGGTCTCCC
DNA 2: TGGTGGCTACGACGGGATT
B20: GCAUAGC (DNA:RNA)
RNA: B1 RNA with U25G, U26C, A30G, A31C
DNA 1: CAATCTGAATTCCGGTCTCCC
DNA 2: TGGTGGCTACGACGGGATT
B21: CUCUCGG (DNA:RNA)
RNA: B12 RNA with G26U, G27C, G28U, G29C, C31G
DNA 1: CAATCTGAATTCCGGTCTCCC
DNA 2: TGGTGGCTACGACGGGATT
B22: CCUACAG (DNA:RNA)
RNA: B12 RNA with G26C, G27U, G28A, G29C, G30A, C31G
DNA 1: CAATCTGAATTCCGGTCTCCC
DNA 2: TGGTGGCTACGACGGGATT
B23: CAUAAGA (DNA:RNA)
RNA: B12 RNA with G26A, G27U, G28A, G29A, C31A
DNA 1: CAATCTGAATTCCGGTCTCCC
DNA 2: TGGTGGCTACGACGGGATT
B24: GGAAACC (DNA:RNA)
RNA: B12 RNA with C25G, G27A, G28A, G29A, G30C
DNA 1: CAATCTGAATTCCGGTCTCCC
DNA 2: TGGTGGCTACGACGGGATT
B25: UUACCUA (DNA:RNA)
RNA: B1 RNA with U28C, A29C, A30U
DNA 1: CAATCTGAATTCCGGTCTCCC
DNA 2: TGGTGGCTACGACGGGATT
B26: ACUAGUA (DNA:RNA)
RNA: B12 RNA with C25A, G26C, G27U, G28A, G30U, C31A
DNA 1: CAATCTGAATTCCGGTCTCCC
DNA 2: TGGTGGCTACGACGGGATT
B27: GCAGUAG (DNA:RNA)
RNA: B1 RNA with U25G, U26C, U28G, A29U, A31G
DNA 1: CAATCTGAATTCCGGTCTCCC
DNA 2: TGGTGGCTACGACGGGATT
B28: AAAUGCU (DNA:RNA)
RNA: B1 RNA with U25A, U26A, A29G, A30C, A31U
DNA 1: CAATCTGAATTCCGGTCTCCC
DNA 2: TGGTGGCTACGACGGGATT
B29: UCCGCUG (DNA:RNA)
RNA: B12 RNA with C25U, G26C, G27C, G29C, G30U, C31G
DNA 1: CAATCTGAATTCCGGTCTCCC
DNA 2: TGGTGGCTACGACGGGATT
B30: CAUCGGA (DNA:RNA)
RNA: B12 RNA with G26A, G27U, G28C, C31A
DNA 1: CAATCTGAATTCCGGTCTCCC
DNA 2: TGGTGGCTACGACGGGATT
B31: CAUUUCU (DNA:RNA)
RNA: B12 RNA with G26A, G27U, G28U, G29U, G30C, C31U
DNA 1: CAATCTGAATTCCGGTCTCCC
DNA 2: TGGTGGCTACGACGGGATT

Residue numbers refer to the chain shown, from its start. This is one part of the list.

The experiment has as its target T1, RBFOX1 RRM RbFoxmut (Fox-RRM*). As to the kind of experiment: EMSA; HiTS-Eq, 1 nM pool, 10 min; buffer printed only for the single-RNA assays: 10 mM Tris pH 7.5, 150 mM NaCl, 3.4 mM EDTA, 0.001% NP-40, 30 C. To be noted: tags: His6 N-terminal (pET28a); label: 5' 32P. The essentials: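 A pool of RNA with 7 randomized nucleotides, 5′-radiolabelled and with DNA-annealed flanks, was equilibrated at 1 nM for 10 min in 50 µL with purified RbFox RRM, wild type or mutant, across increasing protein concentrations. Free RNA was separated by 8% native PAGE, excised, reverse-transcribed, barcoded by PCR and sequenced. Relative association constants were obtained from read-count changes of each RNA species versus the control reaction and normalised to the cognate motif.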
As to B1, the binding signal was 0.0689 KA relative to UGCAUGU.

Turning to B2, the binding signal was 0.118 KA relative to UGCAUGU. Consider B3, for which the binding signal is 0.0566 KA relative to UGCAUGU.

As to B4, the binding signal was 0.0598 KA relative to UGCAUGU. For B5 the value was 0.0842 KA relative to UGCAUGU; for B6, 0.109 KA relative to UGCAUGU; for B7, 0.0748 KA relative to UGCAUGU. For the molecule B8, the binding signal is 0.103 KA relative to UGCAUGU. For B9 the value was 0.117 KA relative to UGCAUGU. For the molecule B10, the binding signal was 0.0956 KA relative to UGCAUGU. On to B11, for which the binding signal is 0.076 KA relative to UGCAUGU.

With B12, the binding signal is 0.0858 KA relative to UGCAUGU.

Consider B13, for which the binding signal is 0.0657 KA relative to UGCAUGU. In the case of B14 it was 0.0964 KA relative to UGCAUGU; in that of B15, 0.11 KA relative to UGCAUGU; in that of B16, 0.0714 KA relative to UGCAUGU. For B17 the value was 0.104 KA relative to UGCAUGU; for B18, 0.0742 KA relative to UGCAUGU.

As to B19, the binding signal was 0.0775 KA relative to UGCAUGU. For B20 the value was 0.126 KA relative to UGCAUGU; for B21, 0.0806 KA relative to UGCAUGU; for B22, 0.109 KA relative to UGCAUGU. B23: the binding signal was 0.104 KA relative to UGCAUGU. For B24 the value was 0.0574 KA relative to UGCAUGU. For B25 the value was 0.101 KA relative to UGCAUGU; for B26, 0.139 KA relative to UGCAUGU; for B27, 0.122 KA relative to UGCAUGU.

For B28, the binding signal was 0.0946 KA relative to UGCAUGU. In the case of B29 it was 0.0984 KA relative to UGCAUGU. In the case of B30 it was 0.0705 KA relative to UGCAUGU; in that of B31, 0.0984 KA relative to UGCAUGU.
